# Assay results reported in PubChem BioAssay AID493208 (National Center for Advancing Translational Sciences (NCATS), 2011).
# In all, about 44,000 compounds went through this assay and about 340 (0.77%) were called active. Another 5% or so got no clear call; they are omitted. Calls come from the whole dose curve; as a rule, active = well fitted inhibition curve with a large enough effect; inconclusive = small, poorly fitted or top-dose-only effect; inactive = flat fitted curve, though single readings scatter. This is one part of the list.
# Experiment: Acumen qHTS Assay for Inhibitors of the mTORC1 Signaling Pathway in MEF (Tsc2-/-, p53-/-) Cells: Sytravon; note: nearly all actives have a fitted effect of over 50% in size
# Details: phospho-rpS6 immunofluorescence/PI, 24 h; series mostly up to 38.3 µM; activity change, negative = inhibition: at the top concentration
# Excerpt: NIH Molecular Libraries Probe Production Centers Network [MLPCN] NIH Chemical Genomics Center [NCGC] MLPCN Grant: NS059428-01 Assay Submitter (PI): Blenis, John; Hoffman, Greg; Harvard University NCGC Assay Overview: The mammalian target of rapamycin (mTOR) is an intracellular serine/threonine kinase Aberrant regulation of mTOR signaling plays a causative role in a number of human diseases, including cancer, benign tumors such as lymphangioleiomyomatosis (LAM) and Tuberous Sclerosis Complex (TSC), and metabolic diseases such as diabetes and obesity. This project aims to identify inhibitors of ribosomal protein S6 (rpS6) phosphorylation. The phosphorylation of rpS6 is a key event downstream of mTOR activation. The assay uses a phospho-specific antibody of phospho-rpS6 to detect inhibitors of mTOR activation. Mutations in the Tsc1 and Tsc2 genes are the underlying genetic lesions responsible for TSC, causing constitutive activation of the mTORC1 pathway and leading to profound effects on cell metabolism. Aberrant metabolism in cancer has recently received significant attention as a target to develop therapeutic agents in the treatment of cancer.1 As Tsc2-/- cells have lost the ability to respond to energy and growth factor deprivation, these cells are unable to properly down regulate cellular biosynthetic processes in response to metabolic stress, and are thus extremely sensitive to glucose deprivation-induced death.2 A central goal of this project is to explore the unique cell survival and metabolic properties of cells with Tsc1 or Tsc2 by screening for compounds that selectively target the Tsc2-/- MEFs by screening both Tsc2-/- and WT MEF cell lines. We hope to better understand these aspects of TSC physiology in order to exploit them for therapeutic benefit.
# NCGC Acumen Assay Protocol Summary: For quantitative high throughput analysis of mTORC1 signaling, we developed a cell-based assay for immuno-fluorescence based detection of rpS6 phosphorylation on the Acumen Explorer that will be used a platform for the primary small molecule screen. Mouse embryonic fibroblasts (MEFs) are cultured in 1536-well plates using DMEM + 10% FBS. Twenty-four hrs after plating, test compounds (solubilized in DMSO) are delivered and incubated with the cells for 24 hrs at 37 degree Celsius. Following the incubation, media with compound is aspirated and the cells are fixed in 4% paraformaldehyde (PFA) containing PBS + 0.2% TX-100. Next, PFA is aspirated, cells are washed two times with PBS plus 0.2% TX-100 and the cells are blocked for 1 hr at room temperature (blocking buffer: LiCOR Blocking Buffer plus 0.2% TX-100). […] Cells are washed two times with PBS plus 0.2% TX-100, and stained with 10 uM propidium iodide (PI) for 20-25 minutes for cell number measurement (1:500 dilution of Hoescht staining is also added for IN Cell imaging). The plates are scanned on the Acumen Explorer laser scanning instrument (TTP Labtech) using the 488nm laser for simultaneous excitation of the Alexa-488 and PI. […] The normalized phospho-S6 staining is calculated as the ratio of the integrated Alexa 488 intensity divided by the integrated PI intensity for the single concentration rapamycin control (7.5 nM) and DMSO columns. […] Inhibition of the pathway is defined based on the normalized phospho-S6 intensity in rapamycin treated cells. Active cells are defined as those with a normalized phospho-S6 staining above this threshold, and each treatment is reported as the % positive cells in the well, where thresholds are defined by selecting wells with the highest and lowest signal and differentiating between the % non-active and % active populations. In addition to the pathway specific phospho-S6 endpoint, the number of PI stained cells from the Acumen is recorded as a measure of cell viability. The primary screen was performed with a MEF cell line in a defined genetic background, Tsc2-/-, p53-/- cell line stably transfected with an empty vector control (Tsc2-/- MEF).
row,SMILES,"activity change, negative = inhibition"
1,Cc1c(CCC(=O)NCCc2ccccc2F)c(=O)oc2cc(O)ccc12,inactive: -0.0713%
2,O=C(c1ccc(CSc2nc3ccncc3n2Cc2ccccc2F)cc1)N1CCCCC1,inactive: -6.6%
3,CCOc1ccc(NC(=O)NCCCN2CCN(c3ccc(OC)cc3)CC2)cc1,inactive: -7.77%
4,CCOc1ccccc1Nc1sc(C(=O)c2ccc(Cl)cc2)c(N)c1C#N,inactive: -2.77%
5,Cc1ccccc1NC(=O)Cn1c(=O)n(Cc2ccco2)c(=O)c2cccnc21,inactive: 4.27%
6,Cc1ccc(-c2cc(C(=O)NCCc3ccccc3)c3ccccc3n2)cc1C,inactive: 11.1%
7,O=C(NCc1ccc(F)cc1)c1cccc(N2CCCS2(=O)=O)c1,inactive: -17.7%
8,CN(C)c1ccc(/C=C(\C#N)c2nc3ccccc3c(=O)[nH]2)cc1,inactive: -18.4%
9,CC(C)c1ccc(NC(=O)CNC(=O)Cn2ccc3ccccc3c2=O)cc1,inactive: 2.74%
10,Cc1ccc(Cl)cc1NC(=O)C1CCCN(S(=O)(=O)c2c(C)noc2/C=C/N(C)C)C1 (stereo not drawn),inactive: -1.02%
11,COC(=O)c1c(NC(=O)CCCOc2ccccc2)sc2c1CCC(C)C2 (stereo not drawn),inactive: 1.82%
12,CCC(=O)N1CCc2cc(S(=O)(=O)CCC(=O)N(C)c3ccc(OC)cc3)ccc21,inactive: -13%
13,Cc1cc(Nc2cccc(Cl)c2)nc2ccc(NC(=O)c3ccc(F)cc3Cl)cc12,inactive: 0.205%
14,O=C(Nc1ccccc1C(=O)OCc1cc(=O)n2ccsc2n1)c1cccc(F)c1,inactive: 0%
15,Cc1ccc2nc(/C(C#N)=C/c3ccc(-c4ccc(F)cc4F)o3)[nH]c2c1,inactive: -7.46%
16,CSc1cccc(NC(=O)c2ccc3c(c2)c(C)c(C)n3Cc2ccc(F)cc2)c1,inactive: -22.5%
17,Cc1cc(C)c2c(CC(=O)Nc3nnc(CC(C)C)s3)coc2c1,inactive: -8.46%
18,COc1ccc(CCCc2nnc(SCC(=O)Nc3ccc(C)c(C)c3)o2)cc1,inactive: -1.44%
19,CCc1ccc(S(=O)(=O)c2cn(C)c3cc(N4CCN(CC)CC4)c(F)cc3c2=O)cc1,inactive: 0%
20,O=C(c1ccc(CS(=O)c2ccccc2Cl)o1)N1CCN(c2ccccc2F)CC1 (stereo not drawn),inactive: -18%
21,O=S1(=O)N=C(Nc2cccc(C(F)(F)F)c2)c2ccccc21,inactive: 0.533%
22,COc1ccccc1-c1c(C)nn2c(C(F)(F)F)cc(-c3ccccc3)nc12,inactive: -15.7%
23,Cc1ccc(CN2CCC(CNC(=O)Nc3c(C)cccc3C)C2)cc1 (stereo not drawn),inactive: -2.22%
24,O=C(CCC1N=C2c3ccccc3N=C(SCc3cccc(Cl)c3)N2C1=O)NCc1cccs1 (stereo not drawn),inactive: -4.33%

row,SMILES,"activity change, negative = inhibition"
1,CCC(=O)Nc1cccc(-c2cn3c(C)csc3n2)c1,inactive: -7.94%
2,COc1cccc(C(=O)N(Cc2cccc(Cl)c2)Cc2ccco2)c1,inactive: -3.94%
3,CC(C)(C)c1ccc(OCC(=O)Nc2c(C(=O)c3ccc(F)cc3)oc3ccccc23)cc1,inactive: 0.113%
4,COc1cc(C(=O)NCCSc2c(-c3ccccc3)[nH]c3ccccc23)cc(OC)c1OC,inactive: -3.14%
5,CCOC(=O)c1ccccc1NC(=O)CSc1ncc2c(n1)-c1ccccc1N(CC)S2(=O)=O,inactive: 2.62%
6,CCC(C)n1c(=N)c(S(=O)(=O)c2ccccc2)cc2c(=O)n3ccccc3nc21 (stereo not drawn),inactive: -16.8%
7,Cc1nn(C)c2c1c(-c1ccccc1)cc(=O)n2CC(=O)NC(C)(C)C,inactive: -0.176%
8,COc1cc2nc(SCc3ccc(F)cc3)n3nc(CCn4c(C)nc5ccccc54)nc3c2cc1OC,inactive: -10.1%
9,CCOc1ccccc1NC(=O)N1CCN(Cc2cc(=O)n3nc(-c4ccc(C)cc4)sc3n2)CC1,inactive: -3.49%
10,CCCNC(=O)Cn1c(=O)cc(C)c2c(C)nn(-c3cccc(F)c3)c21,inactive: -5.68%
11,COc1cc(Cl)c(C)cc1NC(=O)NC1COc2ccccc2C1 (stereo not drawn),inactive: -14.4%
12,CCc1ccc(-c2ccc3nnc(SCC(=O)Nc4cccc(C(C)=O)c4)n3n2)cc1,inactive: 0.441%
13,COc1ccc(C2=C(N3CCN(c4cc(Cl)ccc4C)CC3)c3ccccc3C2=O)cc1,inactive: -3.1%
14,COc1ccc(CCNC(=O)Cn2c(-c3cccs3)cc3cc(F)ccc32)cc1OC,inactive: -9.7%
15,COc1ccc(CCNC(=O)CN2C(=O)COc3ccccc32)cc1OC,inactive: -10.2%
16,COc1cccc(CNC(=O)c2ccc(CS(=O)c3ccccc3)o2)c1 (stereo not drawn),inactive: -9.91%
17,COc1ccc(NC(=O)c2oc3ccccc3c2NC(=O)c2cc(OC)c(OC)c(OC)c2)cc1,inactive: -0.908%
18,Cc1cccc(Oc2nc3c(c(=O)n(C)c(=O)n3C)n2C)c1C,inactive: -4.17%
19,CCOC(=O)N1CCN(C(=O)c2cnn(-c3cccc(F)c3)c2-n2cccc2)CC1,inactive: -3.2%
20,CCc1ccccc1NC(=O)C(CCSC)NS(=O)(=O)c1ccc2c(c1)oc(=O)n2C (stereo not drawn),inactive: -1.03%
21,Cc1ccccc1-c1nn2c(=O)cc(CN3CCN(C(=O)c4ccccc4Br)CC3)nc2s1,inactive: 0%
22,Oc1c(C(c2ccc(Cl)cc2)N2CCOCC2)sc2nc(-c3ccco3)nn12 (stereo not drawn),inactive: -5.97%
23,CC1CCN(S(=O)(=O)c2ccc3nc(N4CCN(c5ccccc5)CC4)ccc3c2)CC1,inactive: 1.51%
24,COc1cccc([C@H]2Nc3ccc(S(=O)(=O)Nc4cc(C)ccc4C)cc3[C@H]3C=CC[C@H]32)c1,inactive: -13.7%
